# Measurements published in the supplement of paper PMC7826260.
# The other results are listed elsewhere or left out. The data describe in vitro nicking of single-stranded DNA by Rep domains (3 µM enzyme, 1 h, 37 °C); shown is the middle of each 90-letter strand. The score is log2 (uncut reads / reads without enzyme); the lower, the more was cut; hits are not called. Because reads are shares of a total, they shift together; uncut strands gain when others are lost, and binding without cutting may add a little.
# System: T1, Rep nickase domain of banana bunchy top virus
# T1 sequence (residues 1-94 of Rep, tag left off): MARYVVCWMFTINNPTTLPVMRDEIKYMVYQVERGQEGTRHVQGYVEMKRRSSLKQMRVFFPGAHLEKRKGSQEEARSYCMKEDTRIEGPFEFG
# Test: uncleaved DNA left, log2 of reads against the no-enzyme library (log2 ratio); higher = less cleavage (more negative = more Rep cleavage of the k-mer); sequences stand for … in CTCGTCCG…ACCGGAGA
# Method: (§1)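 A pool of 90-nt single-stranded DNAs with seven random bases just before the constant AC of the nick site (name = the seven bases) was cut by 3 µM recombinant His6-SUMO-tagged Rep nickase domain (300 nM DNA, 50 mM HEPES pH 8.0, 50 mM NaCl, 1 mM MnCl2, 1 h, 37 °C, three replicates). Uncut DNA was amplified and sequenced.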
row,Sequence,uncleaved DNA left (log2)
1,ATCTAAA,0.017
2,ATCCCCC,-0.0373
3,GTAGGAG,0.00893
4,CCCCAGA,-0.0366
5,ACACCGG,-0.0133
6,CCTTCGA,-0.018
7,CTTTTGC,-0.151
8,GTACTGC,0.00945
9,ACGCCGG,0.0252
10,CTGATAG,0.117
11,CACTGCC,-0.145
12,GTCTTGT,-0.00281
13,TGACGCA,0.0177
14,GGTTAAA,0.115
15,CAACAGG,-0.0551
16,CTCTGTT,-0.683
17,GTTTGCC,-0.00599
18,TGTTCGA,-0.0717
19,TTGTGAT,-0.0301
20,GATGGAG,0.0585

# System: T2, Rep nickase domain of cabbage leaf curl virus
# T2 sequence (residues 1-116 of Rep, tag left off): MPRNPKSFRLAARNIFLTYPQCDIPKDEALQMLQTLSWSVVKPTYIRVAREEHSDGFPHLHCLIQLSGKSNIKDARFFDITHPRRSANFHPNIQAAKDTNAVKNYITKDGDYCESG
# Test: as above
# Method: as §1
row,Sequence,uncleaved DNA left (log2)
1,AGGACCT,0.395
2,GAAGGAG,0.0163
3,AAACGAC,-0.136
4,GCGCAAG,-0.14
5,GGTAAAG,0.205
6,ACGTATC,0.0393
7,GACTACC,0.142
8,GTCTGTA,0.216
9,TGCTTCC,0.149
10,AGGGAGG,-0.00765
11,CTGTATT,-0.932
12,TCAACCA,-0.0652
13,TTGTAAG,-0.965
14,ACGAACG,-0.768
15,GCCCAAA,0.191
16,TGTGCAT,0.296
17,AATGCAG,-0.696
18,ATCACGG,0.48
19,CCATACA,-0.239
20,TCTAGCG,-0.86

row,Sequence,uncleaved DNA left (log2)
1,ATCTAAA,-0.0289
2,ATCCCCC,-0.0666
3,GTAGGAG,0.0426
4,CCCCAGA,0.0416
5,ACACCGG,-0.21
6,CCTTCGA,-0.53
7,CTTTTGC,-0.859
8,GTACTGC,-0.00139
9,ACGCCGG,-0.238
10,CTGATAG,-0.756
11,CACTGCC,-0.392
12,GTCTTGT,0.328
13,TGACGCA,0.0505
14,GGTTAAA,0.433
15,CAACAGG,-0.138
16,CTCTGTT,-1.1
17,GTTTGCC,-0.141
18,TGTTCGA,-0.212
19,TTGTGAT,0.147
20,GATGGAG,-0.443
